Data as given in PubChem BioAssay AID1347165 (National Center for Advancing Translational Sciences (NCATS), 2019).
Screen size: about 220,000 compounds; about 5,700 (2.6%) were called active. Inconclusive results, whose numbers are uncertain, are shown with a selection of clear calls. Calls follow the shape of the dose curve; as a rule, active = well fitted inhibition curve with a large enough effect; inconclusive = small, poorly fitted or top-dose-only effect; inactive = no such curve, though single readings can be large or run the other way. A potency beside an inconclusive call is a rough fit, not a confirmed value.

Biological target: Lysine-specific demethylase 5B (Homo sapiens) (UniProt Q9UGL1)
Experiment: Primary screen for KDM5B Histone Demethylases FDH-coupled qHTS; also: nearly all actives have a fitted effect of over 70% in size; as to activity change, negative = inhibition: 0% is about no effect
Details: FDH-coupled NADH fluorescence (FDH is formaldehyde dehydrogenase); activity change, negative = inhibition: at 57.7 µM (top of the series) unless noted
Outline: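 Measured: NADH fluorescence change, 30 min, RT. System: KDM5BΔAP 200 nM final, H3K4me3 peptide, α-KG, Fe(II), ascorbate, NAD⁺ plus FDH, pH 7.5 HEPES. Compounds: titrated, 10 min pre-incubation with enzyme.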
Potency is read from the fitted curve at half-maximal effect; tags tell the direction and shape of the fitted curve.

UniProt Q9UGL1, sequence (Q9UGL1 whole entry, looked up): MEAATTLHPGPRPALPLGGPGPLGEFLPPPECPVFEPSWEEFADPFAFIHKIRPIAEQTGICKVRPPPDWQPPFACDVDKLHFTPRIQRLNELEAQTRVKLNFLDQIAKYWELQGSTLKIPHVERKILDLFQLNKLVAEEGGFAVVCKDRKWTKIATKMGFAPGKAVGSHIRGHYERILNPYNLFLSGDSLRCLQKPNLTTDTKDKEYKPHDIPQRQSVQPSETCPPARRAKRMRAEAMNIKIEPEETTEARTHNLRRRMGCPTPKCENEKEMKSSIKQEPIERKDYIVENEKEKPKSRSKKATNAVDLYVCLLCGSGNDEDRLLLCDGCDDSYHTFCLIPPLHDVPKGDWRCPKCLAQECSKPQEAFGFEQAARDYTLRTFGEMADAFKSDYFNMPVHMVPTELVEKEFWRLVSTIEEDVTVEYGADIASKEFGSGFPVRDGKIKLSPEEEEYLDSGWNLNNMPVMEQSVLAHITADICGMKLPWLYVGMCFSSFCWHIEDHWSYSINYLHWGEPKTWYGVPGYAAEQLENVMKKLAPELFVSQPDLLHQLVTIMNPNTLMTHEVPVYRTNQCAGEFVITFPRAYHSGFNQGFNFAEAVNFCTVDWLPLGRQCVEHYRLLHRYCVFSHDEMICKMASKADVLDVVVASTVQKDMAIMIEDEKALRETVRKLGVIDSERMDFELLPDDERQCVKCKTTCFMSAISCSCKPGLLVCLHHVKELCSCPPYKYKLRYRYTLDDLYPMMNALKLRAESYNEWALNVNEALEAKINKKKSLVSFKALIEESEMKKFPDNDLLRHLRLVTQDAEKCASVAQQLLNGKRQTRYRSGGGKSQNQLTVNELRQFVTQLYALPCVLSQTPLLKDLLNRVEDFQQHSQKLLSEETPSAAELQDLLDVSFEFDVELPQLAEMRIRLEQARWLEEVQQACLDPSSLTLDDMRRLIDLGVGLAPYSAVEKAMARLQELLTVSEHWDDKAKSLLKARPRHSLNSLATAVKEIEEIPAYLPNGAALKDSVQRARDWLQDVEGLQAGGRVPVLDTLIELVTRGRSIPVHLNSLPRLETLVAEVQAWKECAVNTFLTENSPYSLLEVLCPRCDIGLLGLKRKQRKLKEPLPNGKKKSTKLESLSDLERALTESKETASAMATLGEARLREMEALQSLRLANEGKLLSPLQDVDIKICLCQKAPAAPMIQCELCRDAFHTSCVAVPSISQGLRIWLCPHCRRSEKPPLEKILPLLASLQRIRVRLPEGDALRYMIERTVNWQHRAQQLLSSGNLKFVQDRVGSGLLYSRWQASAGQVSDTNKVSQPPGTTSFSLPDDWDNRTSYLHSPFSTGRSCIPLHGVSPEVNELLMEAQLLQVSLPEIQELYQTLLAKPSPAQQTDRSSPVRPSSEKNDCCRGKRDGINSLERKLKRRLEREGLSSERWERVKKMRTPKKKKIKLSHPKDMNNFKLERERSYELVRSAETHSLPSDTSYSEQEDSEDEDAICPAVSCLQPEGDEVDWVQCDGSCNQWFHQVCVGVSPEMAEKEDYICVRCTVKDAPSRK

Row | Compound | Potency | activity change, negative = inhibition
1 | O=C1c2c(nc(CNc3cccc(F)c3)n2Cc2ccccc2)NCCN1CCN1CCOCC1 | inconclusive: 25.1 µM [inhibitor, single point] | 
2 | C/C(CC(=O)Nc1ccc2ccccc2c1)=N\NC(=O)c1ccc(O)c(O)c1 | inconclusive: 39.8 µM [inhibitor, partial curve, poor fit] | 
3 | Cc1nc(CCn2ccnc2C)n(-c2ccc(S(N)(=O)=O)cc2)n1 | inconclusive: 35.5 µM [inhibitor, partial curve, poor fit] | 
4 | COc1ccc(C2c3c(oc4ccc(Cl)cc4c3=O)C(=O)N2CCCN(C)C)cc1OC (configuration not stated) | inconclusive: 44.7 µM [inhibitor, single point] | 
5 | CC(c1nnc(-c2cccs2)o1)N(C)Cc1ccccc1F (configuration not stated) |  | inactive: -14.8%
6 | O=c1[nH]c2ccc(NCc3ccc(-c4ccc(Cl)cc4)o3)cc2[nH]1 | inconclusive: 15.8 µM [inhibitor, partial curve, poor fit] | 
7 | CCOc1ccccc1Nc1nc(-c2ccc(C)cc2)c(CC(=O)O)s1 | inconclusive: 17.8 µM [inhibitor, partial curve, poor fit] | 
8 | Nc1nccnc1C(=O)NCc1ccc(Cl)s1 | inconclusive: 22.4 µM [inhibitor, single point] | 
9 | Cn1cc(-c2ccncc2)cc1C(=O)NC1CCN(Cc2ccccc2)CC1 |  | inactive: -23.7%
10 | CC1=C[C@@H](CNC(=O)c2ccncc2)[C@H](C(C)C)C[C@H]1CC(=O)N1CCN(C)CC1 |  | inactive: 0.675% [at 86.2 µM]
11 | Cc1ccc(COc2ccccc2C2C3=C(CC(C)(C)CC3=O)OC3=C2C(=O)CC(C)(C)C3)cc1 |  | inactive: 0.893%
12 | c1coc(-c2ccn[nH]2)c1 | inconclusive: 17.8 µM [inhibitor, partial curve, poor fit] | 
13 | N#Cc1ccc(C(=O)N2CCCN(CCc3ccccc3)c3ccccc32)cc1 | inconclusive: 15.8 µM [inhibitor, partial curve] | 
14 | CC(=O)c1ccc(Nc2nc3ccccc3nc2-n2nc(C)cc2C)cc1 | inconclusive: 17.8 µM [inhibitor, single point] | 
15 | CN(CC(=O)Nc1ccc(Nc2ccccc2)cc1)S(=O)(=O)c1ccccc1 |  | inactive: -0.282%
16 | C#Cc1cccc(NC(=O)Cc2c[nH]c3ccccc23)c1 |  | inactive: 7.58%
17 | N#C/C(=C\Nc1ccc(C(N)=O)cc1)c1nc(C2CC2)cs1 |  | inactive: -13.6%
18 | CCN(c1ccc(-c2csc(-c3ccsc3)n2)cc1)S(C)(=O)=O |  | inactive: 15.5%
19 | CC1CCC2(CC1)OCC(C(=O)NCc1ccccc1)N2C(=O)c1ccc(Cl)c(Cl)c1 (configuration not stated) |  | inactive: 3.36%
20 | O=C(O)C(c1c[nH]c2ccccc12)N1CCN(C/C=C/c2ccccc2)CC1 (configuration not stated) |  | inactive: 5.37%
21 | COC(=O)c1ccc(/C=N/OCc2ccc(Cl)c(Cl)c2)cc1 |  | inactive: 18.7%
22 | CCN1CCN(c2ccc(-c3nc(CCCc4ccccc4)no3)cn2)CC1 | inconclusive: 28.2 µM [inhibitor, single point] | 
23 | Cc1ccc(-c2nnc(Nc3ccc(Cl)c(Cl)c3)c3ccccc23)cc1S(=O)(=O)N(C)C | inconclusive: 25.1 µM [inhibitor, partial curve, poor fit] | 

Row | Compound | Potency | activity change, negative = inhibition
24 | Cc1ccc(O)c(/C=N/NC(=O)COc2ccc3c(C)cc(=O)oc3c2)c1 | inconclusive: 28.2 µM [inhibitor, partial curve, poor fit] | 
25 | COc1ccc(CCNS(=O)(=O)c2ccc(F)c(C(=O)Nc3ccc(Cl)cc3)c2)cc1OC | inconclusive: 17.8 µM [inhibitor, partial curve, poor fit] | 
26 | Cn1c2c(c3cc(F)ccc31)CN(C(=O)Nc1ccc(F)c(Cl)c1)CC2 | active: 31.6 µM | 
27 | O=C(Cc1c[nH]c2ncc(-c3ccsc3)cc12)N1CCOCC1 | active: 31.6 µM | 
28 | CCC(=O)N1CCc2cc(CNC(=O)Nc3cc(C)ccc3C)ccc21 | inconclusive: 3.16 µM [inhibitor, full curve, poor fit] | 
29 | O=S(=O)(c1ccccc1Br)N1CCCC1c1nnc2ccccn12 (configuration not stated) |  | inactive: -3.46%
30 | COc1ccc(C(=O)N2CCC(C(=O)N(C)Cc3ccccc3C)CC2)c2ccccc12 |  | inactive: 4.85%
31 | CC(C(=O)NC1CCCCC1)N(Cc1ccc(F)cc1)C(=O)c1snc(C(N)=O)c1N (configuration not stated) | inconclusive: 22.4 µM [inhibitor, partial curve, poor fit] | 
32 | CCOc1ccc2c(n1)CCN(C(=O)c1cccc(C)c1)C2 | inconclusive: 15.8 µM [inhibitor, single point] | 
33 | COC(=O)c1ccccc1NC(=O)C1(c2cccs2)CCOCC1 | inconclusive: 31.6 µM [inhibitor, single point] | 
34 | CCOC(=O)c1c(C)[nH]c(C)c1S(=O)(=O)N1CCCC(C(=O)Nc2ccc(C)c(N(C)C)c2)C1 (configuration not stated) |  | inconclusive: -32.5% [inhibitor]
35 | COc1ccc(Cl)cc1NC(=O)N1CCC2(CC1)N=C(c1ccc(C)c(C)c1)C(=O)N2 |  | inactive: 6.31%
36 | CCNC(=O)C1CCCN(c2nnc(C)c3c(C)n(-c4ccc(C)cc4)nc23)C1 (configuration not stated) | inconclusive: 28.2 µM [inhibitor, partial curve, poor fit] | 
37 | O=C(c1ccncc1)N1CCC2(CC1)CC(N1CCCC1)CCO2 (configuration not stated) | inconclusive: 15.8 µM [inhibitor, partial curve] | 
38 | Cc1ccccc1-c1nccc2c(=O)cc(C3=CCOCC3)oc12 | inconclusive: 35.5 µM [inhibitor, partial curve, poor fit] | 
39 | Cc1ccc(N2CCC3(CCCN3Cc3ccc(C4CCCO4)s3)CC2)nn1 (configuration not stated) | inconclusive: 22.4 µM [inhibitor, partial curve, poor fit] | 
40 | COc1cc(OC)cc(C(=O)NNC(=O)c2ccc(S(=O)(=O)N(C)c3ccccc3OC)cc2)c1 |  | inactive: -5.19%
41 | CCOc1ccc(S(=O)(=O)Nc2cccc(C)c2)c2cccnc12 | inconclusive: 11.2 µM [inhibitor, partial curve, poor fit] | 
42 | Cc1cnc(CN2CC3(CCCN(C(=O)c4cscn4)C3)CCC2=O)cn1 (configuration not stated) | inconclusive: 15.8 µM [inhibitor, single point] | 
43 | COc1ccc(CCNC(=O)c2nccnc2N)cc1 | inconclusive: 28.2 µM [inhibitor, partial curve, poor fit] | 
44 | CC(Sc1n[nH]c(-c2ccccc2)n1)C(=O)Nc1cccc(C(F)(F)F)c1 (configuration not stated) |  | inactive: 3.58%
45 | CCc1ccccc1NC(=O)Cc1cn(C)c2ccccc12 | inconclusive: 15.8 µM [inhibitor, partial curve, poor fit] | 
46 | O=C(NCC12CCC=C1N(CC1CC1)C(=O)CC2)Nc1cccc(F)c1 (configuration not stated) | inconclusive: 22.4 µM [inhibitor, single point] | 

Row | Compound | Potency | activity change, negative = inhibition
47 | N#Cc1nc(-c2ccc(S(=O)(=O)N3CCCC3)cc2)oc1NCc1ccco1 | inconclusive: 10 µM [inhibitor, partial curve, poor fit] | 
48 | CCc1nc(NC(CC)CO)c(C#N)c2c1CCCC2 (configuration not stated) | inconclusive: 31.6 µM [inhibitor, partial curve, poor fit] | 
49 | CN1CCc2c([nH]c3ccccc23)C12CCN(C(=O)Cc1cccnc1)CC2 | inconclusive: 25.1 µM [inhibitor, partial curve, poor fit] | 
50 | CCCOc1ccccc1NC(=O)Cc1nn(C)c(=O)c2ccccc12 |  | inactive: 13.6%
51 | COc1cccc(C(=O)Nc2nc3nc(C)c(C)c(=O)n3[nH]2)c1 | inconclusive: 15.8 µM [inhibitor, partial curve, poor fit] | 
52 | COc1ccc(CN2C(=O)O[C@@H]3CN(C4CCCCC4)C[C@@H]32)cc1OC |  | inactive: 4.88%
53 | Cc1ccc(NC(=O)C2CCCN(S(=O)(=O)c3ccc4[nH]c(=O)ccc4c3)C2)cc1C (configuration not stated) | inconclusive: 50.1 µM [inhibitor, single point] | 
54 | CN(C(=O)c1cccc(OC(F)F)c1)C1CCCCC1 |  | inactive: 9.64%
55 | COCCc1nncn1C1CCNCC1 | inconclusive: 14.1 µM [inhibitor, partial curve] | 
56 | O=C(c1ccco1)N1CCC(c2nc3c(nnn3Cc3ccccc3Cl)c(=O)[nH]2)CC1 | inconclusive: 10 µM [inhibitor, partial curve, poor fit] | 
57 | COc1ccc(OC)c(CNC(=O)c2ccc3c(c2)N(C)C2CCCCN2C3=O)c1 (configuration not stated) | inconclusive: 14.1 µM [inhibitor, partial curve, poor fit] | 
58 | COc1ccc(-c2nn(CC(=O)NCc3ccccc3)c3c2cnc2ccc(F)cc23)cc1 | inconclusive: 31.6 µM [inhibitor, single point] | 
59 | N#CCOc1ccccc1/C=C/C(=O)c1ccc(F)c(Cl)c1 | inconclusive: 28.2 µM [inhibitor, partial curve, poor fit] | 
60 | CN(c1ccccc1)C1CNC1 | inconclusive: 158 µM [inhibitor, partial curve, poor fit] | 
61 | COc1ccc(S(=O)(=O)N2CCC(O)(c3ccc(Cl)cc3)CC2)cc1OC | inconclusive: 1.58 µM [inhibitor, partial curve, poor fit] | 
62 | CC(CNC(=O)CSc1ccc2ccccc2n1)c1ccccc1 (configuration not stated) |  | inactive: 3.81%
63 | COC(=O)C1CCN(Cc2cc(=O)oc3ccc(Cl)cc23)CC1 |  | inactive: 11%
64 | O=C(Nc1ccc(Cl)cc1)c1cc2c(Cl)nc3ccccc3c2s1 | inconclusive: 28.2 µM [inhibitor, partial curve, poor fit] | 
65 | COc1ccnc(-c2nnc3ccc(NC4CCOCC4)nn23)c1 | inconclusive: 39.8 µM [inhibitor, partial curve, poor fit] | 
66 | COc1ccccc1NC(=O)Cn1cc(C(=O)c2ccncc2)c(=O)c2cc(C)ccc21 | inconclusive: 25.1 µM [inhibitor, single point] | 
67 | COC[C@]1(O)CCN(C(=O)CN2CCCC2)CC1(C)C | inconclusive: 31.6 µM [inhibitor, partial curve, poor fit] | 
